Laboratory results taken from the supplement of paper PMC12217912.
The other results are listed elsewhere or left out. The full chains were built here from the parent and the listed change. Values near 0.05 are background.

B1: TEV protease; numbered along this chain (parent)
chain: MGESLFKGPRDYNPISSSICHLTNESDGHTTSLYGIGFGPFIITNKHLFRRNNGTLVVQSLHGVFKVKDTTTLQQHLVDGRDMIIIRMPKDFPPFPQKLKFREPQREERICLVTTNFQTKSMSSMVSDTSCTFPSGDGIFWKHWIQTKDGQCGSPLVSTRDGFIVGIHSASNFTNTNNYFTSVPKNFMELLTNQEAQQWVSGWRLNADSVLWGGHKVFMVKPEEPFQPVKEATQL

Variants of: B1
Experiment: raw area under fraction-flipped curve 0-4 h after induction (AUC4h, not background-subtracted), DNA-recorder readout of cleavage of the substrate (dimensionless); higher = more cleavage of the substrate by the protease variant
Details: temperature: 34 °C; time window: 0-4 h after rhamnose induction
Description: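 In vivo DNA recorder in E. coli TOP10(DE3) ΔrhaA at 34 °C. Each TEVp single-site mutant (parent TEVp 0) is paired with a single-site variant of the 7-mer TEVs (canonical ENLYFQ|S). The substrate sits between flexible linkers in a Bxb1-sfGFP-TEVs-SsrA fusion, so cleavage stabilises Bxb1 and speeds flipping of a recombination array, read by NGS. The value is the raw area under the fraction-flipped curve over 0-4 h after rhamnose induction (AUC4h), with ≥20 reads per time point. It is not background-subtracted; inactive controls average about 0.047.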
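Note: Bxb1 expression induced with 0.2% (w/v) L-rhamnose at OD600 near 0.5, cultures sampled hourly, flipped fraction per protease–substrate barcode pair counted by paired-end Illumina sequencing.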

Row | Variant | area with substrate ANLYFQS | area with substrate CNLYFQS | area with substrate DNLYFQS | area with substrate FNLYFQS | area with substrate INLYFQS | area with substrate MNLYFQS | area with substrate PNLYFQS | area with substrate SNLYFQS | area with substrate TNLYFQS | area with substrate WNLYFQS | area with substrate YNLYFQS | area with substrate GNLYFQS | area with substrate HNLYFQS | area with substrate LNLYFQS | area with substrate NNLYFQS | area with substrate QNLYFQS | area with substrate VNLYFQS | area with substrate KNLYFQS | area with substrate RNLYFQS
1 | D82Y | 0.0548 | 0.0613 | 0.0506 | 0.072 | 0.0622 | 0.061 | 0.0468 | 0.0511 | 0.0426 | 0.0521 | 0.048 |  |  |  |  |  |  |  | 
2 | R102C | 0.0763 | 0.0453 | 0.0509 | 0.0406 |  | 0.0395 |  | 0.0508 | 0.0528 | 0.0441 | 0.0482 | 0.0258 | 0.0539 | 0.0524 | 0.0417 | 0.0446 | 0.0514 |  | 
3 | R102A | 0.0482 | 0.0514 | 0.0519 |  | 0.0391 | 0.0398 | 0.0491 | 0.0599 | 0.0583 | 0.0494 | 0.0501 | 0.0589 | 0.0462 | 0.0543 | 0.0536 |  | 0.0544 | 0.0644 | 
4 | R102T | 0.0543 | 0.0415 | 0.0523 | 0.0427 |  | 0.0456 | 0.065 |  |  | 0.0596 |  | 0.0575 | 0.0953 |  |  |  | 0.0896 | 0.0535 | 
5 | K98I | 0.0618 | 0.0534 | 0.0816 |  | 0.0664 | 0.0644 | 0.0571 | 0.0659 | 0.0566 | 0.0774 |  | 0.0662 | 0.0644 | 0.0703 | 0.0717 |  |  |  | 
6 | K100V | 0.027 | 0.0567 | 0.072 | 0.0522 |  |  | 0.0572 |  | 0.0749 | 0.0621 | 0.0663 |  |  |  | 0.0661 | 0.075 | 0.0682 | 0.0686 | 0.0634
7 | K100L | 0.0507 | 0.0676 | 0.0817 | 0.0633 | 0.0767 | 0.0739 | 0.0752 | 0.0785 | 0.0713 | 0.0598 |  |  |  | 0.068 |  |  |  |  | 
8 | K100R | 0.0638 | 0.0451 | 0.128 |  | 0.0814 | 0.075 |  | 0.0674 | 0.0236 | 0.0472 | 0.0537 |  | 0.069 | 0.0608 |  |  | 0.0603 | 0.065 | 
9 | K100E | 0.0491 | 0.0635 | 0.0583 | 0.0519 | 0.056 | 0.0736 | 0.119 |  | 0.0542 | 0.062 |  |  | 0.0578 |  | 0.0786 |  |  |  | 
10 | P94G | 0.0661 | 0.0809 | 0.109 |  |  | 0.072 | 0.0826 | 0.066 |  | 0.0682 | 0.0763 | 0.0739 |  | 0.0775 | 0.0699 |  | 0.0866 |  | 0.0449
11 | P94I | 0.0812 | 0.0952 | 0.105 | 0.0655 | 0.0785 |  | 0.0921 |  | 0.0589 | 0.0559 | 0.0555 |  |  |  |  |  | 0.0685 | 0.0904 | 
12 | V78F | 0.0873 | 0.0677 | 0.0621 |  | 0.0541 | 0.0558 |  | 0.0624 |  | 0.0599 |  | 0.057 | 0.0554 |  | 0.0678 | 0.064 | 0.0571 |  | 0.08
13 | V78S | 0.0565 | 0.0585 | 0.0474 |  | 0.0345 | 0.0639 | 0.0618 | 0.0556 | 0.0534 | 0.0427 |  | 0.0515 |  | 0.053 | 0.0413 |  | 0.0656 |  | 
14 | V78C | 0.0762 | 0.0825 | 0.0902 |  | 0.0453 | 0.0667 |  | 0.0777 | 0.045 | 0.0597 | 0.0591 | 0.0888 | 0.0749 | 0.0671 |  |  |  |  | 
15 | F92H | 0.0524 | 0.0633 | 0.0764 | 0.077 | 0.0792 |  | 0.0739 |  |  |  | 0.0605 | 0.0789 | 0.0637 | 0.0826 |  |  |  | 0.0771 | 
16 | M83T | 0.0606 | 0.0561 | 0.0665 | 0.0646 | 0.0654 | 0.0556 | 0.0625 |  | 0.073 |  | 0.0522 |  | 0.0648 |  |  |  |  |  | 
17 | M83W | 0.0505 | 0.0603 | 0.0632 | 0.0819 | 0.0519 |  | 0.071 | 0.0542 | 0.0579 | 0.0598 |  |  | 0.0635 | 0.0637 |  |  | 0.0698 |  | 0.0551
18 | D91A | 0.0603 | 0.0693 | 0.0703 |  | 0.047 | 0.0637 |  | 0.0732 | 0.0655 | 0.0556 | 0.0644 | 0.0552 | 0.0623 |  | 0.0615 |  |  |  | 
19 | D91H | 0.084 | 0.0781 | 0.0794 |  |  | 0.0698 | 0.0699 | 0.0677 | 0.0807 | 0.0621 | 0.0558 |  | 0.0628 | 0.0627 | 0.0567 |  | 0.0731 | 0.0615 | 0.0647
20 | D91P | 0.0665 | 0.0726 | 0.0714 | 0.0745 | 0.0749 | 0.0483 | 0.0794 |  |  | 0.0683 |  |  | 0.0898 |  | 0.0693 |  |  |  | 
21 | I84W | 0.0564 | 0.0609 | 0.0502 | 0.047 |  | 0.0551 | 0.0589 | 0.0473 | 0.0508 | 0.0481 | 0.0483 |  | 0.0471 | 0.0772 | 0.062 | 0.0444 | 0.0554 |  | 0.0537
22 | E103C | 0.0919 | 0.0707 | 0.047 | 0.0633 | 0.0843 |  | 0.0668 |  | 0.0725 | 0.0723 | 0.0661 | 0.118 | 0.0911 | 0.0665 | 0.0983 |  |  | 0.0667 | 
23 | E103L | 0.0995 | 0.0861 | 0.0883 | 0.0401 |  |  | 0.0515 |  | 0.0532 | 0.0625 |  | 0.0805 | 0.0805 |  |  |  |  | 0.0772 | 
24 | E103Q | 0.0433 | 0.0675 | 0.0889 | 0.0604 |  | 0.0704 | 0.0719 | 0.0673 | 0.0411 | 0.0614 | 0.0514 | 0.0634 | 0.0645 | 0.0708 | 0.059 |  |  | 0.0548 | 
25 | E103A | 0.0609 | 0.0686 | 0.0915 |  | 0.0849 |  |  |  | 0.0658 | 0.046 |  | 0.0579 | 0.0684 |  | 0.0637 | 0.0634 |  | 0.0621 | 
26 | I85P | 0.0365 | 0.0365 | 0.0474 | 0.0331 | 0.0143 | 0.0292 | 0.0321 | 0.0396 | 0.0267 | 0.0087 |  |  | 0.0367 | 0.0434 |  | 0.0428 | 0.0444 | 0.0537 | 0.0503
27 | Q105C | 0.0781 | 0.0677 | 0.0687 |  | 0.0435 | 0.0723 |  |  |  | 0.0628 | 0.0544 | 0.0698 | 0.0493 | 0.0693 | 0.0935 | 0.0471 | 0.086 |  | 
